Results as given in PubChem BioAssay (NCATS).
Values joined by “and” are separate entries in the source; they are usually repeats but may differ in a detail not shown here. Equal values may be shown once. Inconclusive results, whose numbers are uncertain, are shown with a selection of clear calls. Active and inactive are the calls of the source. Calls come from the whole dose curve; as a rule, active = well fitted curve in either direction with a large enough effect (not every such curve was filed as active); inconclusive = small, poorly fitted or top-dose-only effect, or another doubt; inactive = flat fitted curve, though single readings scatter.

Assay: NFAT Signaling Pathway (AID 444);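 note: carbachol stimulus at about its EC50 of 1 µM final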
Conditions: Jurkat NFAT-bla M1, carbachol, beta-lactamase ratio, 5 h; at 17.2 µM (top of the series) unless noted
Procedure, shortened: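 Read-out: CCF4 FRET ratio (460 nm/530 nm) after 1 h RT dye loading, used for %activity and AC50 from titration series. Cells: Jurkat NFAT-β-lactamase/M1 line, treated with compound plus 1 uM carbachol for 5 h, 37 °C.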
% is set by controls: 0 for no effect and ±100 for the full control effect.

With `CC(C)Sc1nnc2n(CCc3ccccc3)c(=O)c3c4c(sc3n12)COC(C)(C)C4` as the compound, how does the activity change, negative = inhibition read?
The activity change, negative = inhibition was inconclusive: -62.3% [inhibitor].

For `CC12CCC(=O)N1c1c(sc3nc(N4CCOCC4)c4c(c13)CCCC4)C(=O)N2` (stereo unspecified), which activity change, negative = inhibition is on record?
The activity change, negative = inhibition was inactive: 8.35%.

With `C[n+]1cccc(CNC(=O)/C=N/O)c1` as the compound, how does the activity change, negative = inhibition read?
The activity change, negative = inhibition was inactive: 2.4%.

For `C=CCOc1nc2c(c(=O)n(Cc3ccc(Cl)c(Cl)c3)c(=O)n2C)n1C`, which activity change, negative = inhibition is on record?
Its activity change, negative = inhibition is inactive: -2.4%.

For `C[N+](C)(N)Cc1nc(-c2ccc(Cl)cc2)no1`, which activity change, negative = inhibition is on record?
Its activity change, negative = inhibition is inactive: -6.01% [at 7.69 µM].

Which activity change, negative = inhibition does the source give for `COCC(=O)N1CCC2(CCCN(c3ccncc3)C2)CC1` here?
The activity change, negative = inhibition was inconclusive: -40.8% [inhibitor] [at 7.69 µM].

Which activity change, negative = inhibition does the source give for `C/C(=N\[N+](C)(C)C)c1ccc(C)c(C)c1` here?
The activity change, negative = inhibition was inconclusive: -70.6% [inhibitor] [at 7.69 µM].

With `COc1cc(OC)cc(C(=O)N2CCC(N3CCCCCC3)CC2)c1` as the compound, how does the activity change, negative = inhibition read?
Its activity change, negative = inhibition is inconclusive: -47.7% [inhibitor].

With `c1ccc(C(c2ccccc2)N2CCC3(CCNCC3)CC2)cc1` as the compound, how does the activity change, negative = inhibition read?
The activity change, negative = inhibition was inconclusive: -73% [inhibitor] [at 7.69 µM].

Which activity change, negative = inhibition does the source give for `O=C(O)C1=C/C(=C(/c2ccccc2)c2cc(C(=O)O)c(O)c3ccccc23)c2ccccc2C1=O` here?
Its activity change, negative = inhibition is inactive: 12% [at 7.69 µM] and inactive: -21.2% [at 7.69 µM].

Which activity change, negative = inhibition does the source give for `Cc1ccc(S(=O)(=O)OC2CCN(C)CC2)cc1` here?
Its activity change, negative = inhibition is inactive: 2.31% [at 7.69 µM].

Which activity change, negative = inhibition does the source give for `O=C(O)c1[nH]c(=O)[nH]c(=O)c1CN1CCCCC1` here?
The activity change, negative = inhibition was inactive: 9.91% [at 7.69 µM].

Which activity change, negative = inhibition does the source give for `CC1(C)Cc2c(C#N)c(N3CCOCC3)nc(-c3ccccc3)c2CO1` here?
The activity change, negative = inhibition was inconclusive: -47.7% [inhibitor].

For `CC(C)C(=O)N1CCN(c2nc(-c3ccccc3)c3c(c2C#N)CC(C)(C)OC3)CC1`, which activity change, negative = inhibition is on record?
Its activity change, negative = inhibition is inconclusive: -44% [inhibitor].

For `COc1ccc(C(=O)N2CCC3(CCN(Cc4ccccc4OC)CC3)CC2)cc1`, which activity change, negative = inhibition is on record?
Its activity change, negative = inhibition is inconclusive: -56% [inhibitor] [at 7.69 µM].

With `Cc1ccc2cc(CN(C(=O)c3ccco3)c3ccccc3C)c(=O)[nH]c2c1` as the compound, how does the activity change, negative = inhibition read?
Its activity change, negative = inhibition is inconclusive: 33.9% [activator].
